From article PMC5715026
Results are given in words; binding and its absence hold for the method and conditions named. For part of these data: In cells and extracts the contact can be indirect. Some binding calls cover weakened binding; strength is not graded here. For part of these data: Tags and fused reporters may be left off the sequences shown. Blank lines part the entries; values can stand above or below the molecule they belong to.

Sequences of proteins named here, by UniProt entry; tags and fusion partners are left off.
UniProt O95235: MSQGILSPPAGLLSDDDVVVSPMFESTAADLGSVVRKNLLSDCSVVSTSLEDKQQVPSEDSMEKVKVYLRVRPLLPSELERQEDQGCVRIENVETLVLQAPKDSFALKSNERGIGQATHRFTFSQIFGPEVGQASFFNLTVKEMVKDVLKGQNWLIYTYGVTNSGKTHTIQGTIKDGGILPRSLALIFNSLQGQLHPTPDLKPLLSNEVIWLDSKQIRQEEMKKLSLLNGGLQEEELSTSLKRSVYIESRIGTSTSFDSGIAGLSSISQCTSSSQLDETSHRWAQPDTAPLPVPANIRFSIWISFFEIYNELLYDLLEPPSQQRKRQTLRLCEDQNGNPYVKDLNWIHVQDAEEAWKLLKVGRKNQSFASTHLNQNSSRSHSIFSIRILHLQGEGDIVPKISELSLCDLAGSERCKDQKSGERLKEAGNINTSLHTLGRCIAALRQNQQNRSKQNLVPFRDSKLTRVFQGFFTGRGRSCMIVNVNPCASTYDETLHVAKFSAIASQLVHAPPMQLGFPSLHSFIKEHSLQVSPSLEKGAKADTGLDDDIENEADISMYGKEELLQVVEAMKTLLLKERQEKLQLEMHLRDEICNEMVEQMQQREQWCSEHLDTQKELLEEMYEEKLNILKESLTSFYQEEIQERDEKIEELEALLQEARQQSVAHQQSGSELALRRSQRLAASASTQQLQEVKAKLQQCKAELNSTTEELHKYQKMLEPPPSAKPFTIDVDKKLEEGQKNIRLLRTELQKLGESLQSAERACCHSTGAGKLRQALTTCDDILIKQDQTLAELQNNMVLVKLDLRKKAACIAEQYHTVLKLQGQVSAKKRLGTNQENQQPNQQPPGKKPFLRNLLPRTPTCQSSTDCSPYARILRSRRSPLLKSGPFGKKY
UniProt E9PY46: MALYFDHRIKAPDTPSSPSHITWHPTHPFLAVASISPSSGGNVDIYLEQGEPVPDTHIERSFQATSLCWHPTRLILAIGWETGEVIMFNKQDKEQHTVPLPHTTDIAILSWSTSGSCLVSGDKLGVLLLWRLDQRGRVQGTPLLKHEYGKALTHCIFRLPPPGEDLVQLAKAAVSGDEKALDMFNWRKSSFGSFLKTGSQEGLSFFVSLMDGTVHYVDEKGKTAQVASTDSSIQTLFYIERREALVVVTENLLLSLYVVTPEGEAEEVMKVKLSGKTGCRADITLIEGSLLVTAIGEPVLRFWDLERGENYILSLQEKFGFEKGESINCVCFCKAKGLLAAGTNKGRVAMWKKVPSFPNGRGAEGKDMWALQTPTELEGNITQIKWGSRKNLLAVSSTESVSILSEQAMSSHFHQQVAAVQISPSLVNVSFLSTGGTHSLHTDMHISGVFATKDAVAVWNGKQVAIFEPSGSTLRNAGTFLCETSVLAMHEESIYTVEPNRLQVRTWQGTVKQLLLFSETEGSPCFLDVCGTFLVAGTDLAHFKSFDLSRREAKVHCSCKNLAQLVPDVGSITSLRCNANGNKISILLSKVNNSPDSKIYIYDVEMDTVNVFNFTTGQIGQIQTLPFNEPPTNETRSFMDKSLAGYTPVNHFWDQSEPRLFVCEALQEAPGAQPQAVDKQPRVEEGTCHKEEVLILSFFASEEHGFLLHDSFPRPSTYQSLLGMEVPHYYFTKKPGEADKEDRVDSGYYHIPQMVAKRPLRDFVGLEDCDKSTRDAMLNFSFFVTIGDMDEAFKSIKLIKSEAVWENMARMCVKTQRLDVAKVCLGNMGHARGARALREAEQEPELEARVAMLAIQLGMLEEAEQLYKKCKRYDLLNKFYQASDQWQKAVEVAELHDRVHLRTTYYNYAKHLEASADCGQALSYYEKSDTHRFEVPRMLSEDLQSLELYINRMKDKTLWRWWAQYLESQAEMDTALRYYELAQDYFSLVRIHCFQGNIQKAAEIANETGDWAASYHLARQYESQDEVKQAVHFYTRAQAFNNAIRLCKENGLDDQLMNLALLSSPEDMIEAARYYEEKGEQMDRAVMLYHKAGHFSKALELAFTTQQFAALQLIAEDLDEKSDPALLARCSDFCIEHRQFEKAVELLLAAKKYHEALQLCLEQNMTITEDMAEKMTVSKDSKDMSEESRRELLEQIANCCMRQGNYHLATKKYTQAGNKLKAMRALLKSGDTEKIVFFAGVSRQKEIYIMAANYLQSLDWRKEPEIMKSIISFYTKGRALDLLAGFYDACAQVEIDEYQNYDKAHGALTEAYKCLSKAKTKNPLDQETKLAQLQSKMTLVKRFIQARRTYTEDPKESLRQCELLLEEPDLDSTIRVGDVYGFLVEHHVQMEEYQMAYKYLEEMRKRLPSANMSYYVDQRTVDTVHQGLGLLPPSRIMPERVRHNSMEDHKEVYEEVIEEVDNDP
UniProt Q96GD4: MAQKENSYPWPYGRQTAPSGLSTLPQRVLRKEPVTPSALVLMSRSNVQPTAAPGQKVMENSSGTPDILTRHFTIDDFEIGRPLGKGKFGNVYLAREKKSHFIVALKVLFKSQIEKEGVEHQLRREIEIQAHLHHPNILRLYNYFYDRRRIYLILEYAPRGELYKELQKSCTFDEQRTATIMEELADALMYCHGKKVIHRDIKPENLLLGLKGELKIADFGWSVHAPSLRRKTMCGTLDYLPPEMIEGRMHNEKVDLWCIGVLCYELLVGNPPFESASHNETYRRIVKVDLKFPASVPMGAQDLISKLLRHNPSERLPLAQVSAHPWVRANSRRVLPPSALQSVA

What was measured:
[1] = molecular target: GFP-MKLP2 (HeLa Kyoto BAC line, under its endogenous promotor) (UniProt O95235); assay: co-IP; GFP-Trap A immunoprecipitation, 2 h at 4 °C, mitotic HeLa Kyoto BAC line expressing GFP-MKLP2; western blot
[2] = molecular target: T1, FLAG-tagged IFT46 (stably expressed in IMCD cells) (UniProt Q9DB07); assay: co-IP; FLAG immunoprecipitation on mitotic shake-off of IMCD cells stably expressing FLAG-tagged IFT27, IFT52 or IFT46; western blot
T1 sequence: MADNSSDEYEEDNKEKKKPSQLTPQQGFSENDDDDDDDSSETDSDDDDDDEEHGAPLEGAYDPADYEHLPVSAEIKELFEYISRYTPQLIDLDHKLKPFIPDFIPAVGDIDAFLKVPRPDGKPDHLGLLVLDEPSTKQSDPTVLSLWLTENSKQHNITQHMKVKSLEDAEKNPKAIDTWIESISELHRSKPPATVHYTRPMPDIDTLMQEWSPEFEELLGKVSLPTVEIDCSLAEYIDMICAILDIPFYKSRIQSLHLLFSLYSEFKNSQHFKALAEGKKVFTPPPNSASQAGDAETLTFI

[3] = molecular target: T2, FLAG-tagged IFT27 (stably expressed in IMCD cells) (UniProt Q9D0P8); assay: as above
T2 sequence: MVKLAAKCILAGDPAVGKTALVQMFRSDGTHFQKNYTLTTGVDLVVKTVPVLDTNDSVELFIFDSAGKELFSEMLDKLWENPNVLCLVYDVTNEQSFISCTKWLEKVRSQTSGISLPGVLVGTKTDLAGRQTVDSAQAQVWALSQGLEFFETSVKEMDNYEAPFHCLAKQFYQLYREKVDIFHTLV

[4] = molecular target: T3, FLAG-tagged IFT52 (stably expressed in IMCD cells) (UniProt Q62559); assay: as above
T3 sequence: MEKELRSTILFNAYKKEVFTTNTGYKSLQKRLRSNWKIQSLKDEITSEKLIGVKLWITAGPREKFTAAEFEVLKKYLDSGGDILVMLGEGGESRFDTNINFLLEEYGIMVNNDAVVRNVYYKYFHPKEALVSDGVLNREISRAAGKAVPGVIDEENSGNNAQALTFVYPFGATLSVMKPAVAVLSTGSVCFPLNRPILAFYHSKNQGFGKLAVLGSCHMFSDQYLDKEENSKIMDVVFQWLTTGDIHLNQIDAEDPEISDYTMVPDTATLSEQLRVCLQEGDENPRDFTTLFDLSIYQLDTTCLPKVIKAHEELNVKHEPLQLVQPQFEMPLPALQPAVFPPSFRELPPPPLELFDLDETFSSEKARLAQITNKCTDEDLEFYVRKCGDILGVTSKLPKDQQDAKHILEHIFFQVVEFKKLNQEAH

[5] = molecular target: T4, Flag-IFT27 (pCMV14-IFT27-3xFlag, transfected in HeLa Kyoto) (UniProt Q9BW83); assay: co-IP; Flag M2 agarose immunoprecipitation, 2 h at 4 °C, mitotic HeLa Kyoto cells transfected with Flag-IFT27 and Myc-Aurora B; western blot
T4 sequence: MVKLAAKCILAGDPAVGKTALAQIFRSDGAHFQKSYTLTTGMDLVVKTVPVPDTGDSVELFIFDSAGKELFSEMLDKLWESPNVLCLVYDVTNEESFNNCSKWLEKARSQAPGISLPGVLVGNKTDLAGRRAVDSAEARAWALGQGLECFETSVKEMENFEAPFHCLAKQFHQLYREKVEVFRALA

[6] = molecular target: T5, Lex-mMKLP2 M1-Q665 (aa 1-665) (mouse (from the name mMKLP2)) (UniProt P97329); assay: two-hybrid; S. cerevisiae reporter strain L40, pGAD and pLex fusions, growth without Histidine
T5 sequence: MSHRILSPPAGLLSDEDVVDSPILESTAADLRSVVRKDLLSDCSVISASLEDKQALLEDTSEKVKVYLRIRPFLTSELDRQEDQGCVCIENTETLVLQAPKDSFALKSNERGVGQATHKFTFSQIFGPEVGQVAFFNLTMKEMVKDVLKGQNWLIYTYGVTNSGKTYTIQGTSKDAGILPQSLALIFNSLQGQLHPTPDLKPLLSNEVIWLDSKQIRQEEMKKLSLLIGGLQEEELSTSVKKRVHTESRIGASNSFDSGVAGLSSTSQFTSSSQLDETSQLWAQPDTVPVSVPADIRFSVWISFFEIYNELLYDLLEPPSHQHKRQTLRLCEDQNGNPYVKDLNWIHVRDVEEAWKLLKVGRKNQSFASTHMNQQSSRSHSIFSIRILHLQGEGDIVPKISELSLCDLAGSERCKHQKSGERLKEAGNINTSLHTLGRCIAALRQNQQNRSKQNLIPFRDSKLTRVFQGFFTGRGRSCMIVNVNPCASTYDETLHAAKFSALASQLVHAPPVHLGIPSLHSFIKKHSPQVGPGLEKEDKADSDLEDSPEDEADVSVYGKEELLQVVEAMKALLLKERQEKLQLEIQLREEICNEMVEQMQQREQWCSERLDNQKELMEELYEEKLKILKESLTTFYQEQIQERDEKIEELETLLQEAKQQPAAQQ

[7] = molecular target: T6, Lex-mMKLP2 N-term (aa 1-529) (mouse (from the name mMKLP2)) (UniProt P97329); assay: as above
T6 sequence: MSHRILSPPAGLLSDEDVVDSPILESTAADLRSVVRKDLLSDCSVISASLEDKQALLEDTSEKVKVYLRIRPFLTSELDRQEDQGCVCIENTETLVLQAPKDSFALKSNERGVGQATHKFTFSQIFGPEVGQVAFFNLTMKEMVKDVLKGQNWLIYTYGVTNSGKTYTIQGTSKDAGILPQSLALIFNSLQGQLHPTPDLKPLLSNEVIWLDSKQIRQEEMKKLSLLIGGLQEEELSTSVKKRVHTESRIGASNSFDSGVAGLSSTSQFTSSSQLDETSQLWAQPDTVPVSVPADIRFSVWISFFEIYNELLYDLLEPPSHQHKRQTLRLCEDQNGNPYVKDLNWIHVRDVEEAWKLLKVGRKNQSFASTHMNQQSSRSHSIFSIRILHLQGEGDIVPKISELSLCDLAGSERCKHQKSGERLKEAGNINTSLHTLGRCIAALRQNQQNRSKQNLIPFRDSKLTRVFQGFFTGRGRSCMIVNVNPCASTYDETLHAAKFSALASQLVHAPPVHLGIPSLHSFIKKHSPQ

[8] = molecular target: T7, Lex-mMKLP2 C-term (aa 530-887) (mouse (from the name mMKLP2)) (UniProt P97329); assay: as above
T7 sequence: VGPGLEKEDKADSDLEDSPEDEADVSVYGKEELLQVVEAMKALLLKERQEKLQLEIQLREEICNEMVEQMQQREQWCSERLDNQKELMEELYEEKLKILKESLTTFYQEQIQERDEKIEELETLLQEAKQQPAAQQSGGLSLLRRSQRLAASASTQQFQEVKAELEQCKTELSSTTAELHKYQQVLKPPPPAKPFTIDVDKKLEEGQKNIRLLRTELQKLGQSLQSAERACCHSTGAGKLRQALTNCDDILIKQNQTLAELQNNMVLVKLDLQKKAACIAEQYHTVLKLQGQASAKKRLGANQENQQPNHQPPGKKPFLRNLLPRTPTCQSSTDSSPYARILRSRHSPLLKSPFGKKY

Molecule: IFT140 (endogenous, IMCD cells) (from UniProt E9PY46 1-1464)
- binding [2]: no binding
- binding [3]: no binding
- binding [4]: no binding

B1: IFT88 (endogenous, HeLa Kyoto) (protein, UniProt Q13099 1-824)
chain: MMQNVHLAPETDEDDLYSGYNDYNPIYDIEELENDAAFQQAVRTSHGRRPPITAKISSTAVTRPIATGYGSKTSLASSIGRPMTGAIQDGVTRPMTAVRAAGFTKAALRGSAFDPLSQSRGPASPLEAKKKDSPEEKIKQLEKEVNELVEESCIANSCGDLKLALEKAKDAGRKERVLVRQREQVTTPENINLDLTYSVLFNLASQYSVNEMYAEALNTYQVIVKNKMFSNAGILKMNMGNIYLKQRNYSKAIKFYRMALDQVPSVNKQMRIKIMQNIGVTFIQAGQYSDAINSYEHIMSMAPNLKAGYNLTICYFAIGDREKMKKAFQKLITVPLEIDEDKYISPSDDPHTNLVTEAIKNDHLRQMERERKAMAEKYIMTSAKLIAPVIETSFAAGYDWCVEVVKASQYVELANDLEINKAVTYLRQKDYNQAVEILKVLEKKDSRVKSAAATNLSALYYMGKDFAQASSYADIAVNSDRYNPAALTNKGNTVFANGDYEKAAEFYKEALRNDSSCTEALYNIGLTYEKLNRLDEALDCFLKLHAILRNSAEVLYQIANIYELMENPSQAIEWLMQVVSVIPTDPQVLSKLGELYDREGDKSQAFQYYYESYRYFPCNIEVIEWLGAYYIDTQFWEKAIQYFERASLIQPTQVKWQLMVASCFRRSGNYQKALDTYKDTHRKFPENVECLRFLVRLCTDLGLKDAQEYARKLKRLEKMKEIREQRIKSGRDGSGGSRGKREGSASGDSGQNYSASSKGERLSARLRALPGTNEPYESSSNKEIDASYVDPLGPQIERPKTAAKKRIDEDDFADEELGDDLLPE
- binding [1]: binds

B2: GAD-IFT88 (pGAD-IFT88) (protein, UniProt Q13099 1-824)
chain: MMQNVHLAPETDEDDLYSGYNDYNPIYDIEELENDAAFQQAVRTSHGRRPPITAKISSTAVTRPIATGYGSKTSLASSIGRPMTGAIQDGVTRPMTAVRAAGFTKAALRGSAFDPLSQSRGPASPLEAKKKDSPEEKIKQLEKEVNELVEESCIANSCGDLKLALEKAKDAGRKERVLVRQREQVTTPENINLDLTYSVLFNLASQYSVNEMYAEALNTYQVIVKNKMFSNAGILKMNMGNIYLKQRNYSKAIKFYRMALDQVPSVNKQMRIKIMQNIGVTFIQAGQYSDAINSYEHIMSMAPNLKAGYNLTICYFAIGDREKMKKAFQKLITVPLEIDEDKYISPSDDPHTNLVTEAIKNDHLRQMERERKAMAEKYIMTSAKLIAPVIETSFAAGYDWCVEVVKASQYVELANDLEINKAVTYLRQKDYNQAVEILKVLEKKDSRVKSAAATNLSALYYMGKDFAQASSYADIAVNSDRYNPAALTNKGNTVFANGDYEKAAEFYKEALRNDSSCTEALYNIGLTYEKLNRLDEALDCFLKLHAILRNSAEVLYQIANIYELMENPSQAIEWLMQVVSVIPTDPQVLSKLGELYDREGDKSQAFQYYYESYRYFPCNIEVIEWLGAYYIDTQFWEKAIQYFERASLIQPTQVKWQLMVASCFRRSGNYQKALDTYKDTHRKFPENVECLRFLVRLCTDLGLKDAQEYARKLKRLEKMKEIREQRIKSGRDGSGGSRGKREGSASGDSGQNYSASSKGERLSARLRALPGTNEPYESSSNKEIDASYVDPLGPQIERPKTAAKKRIDEDDFADEELGDDLLPE
- binding [6]: binds
- binding [7]: no binding
- binding [8]: binds

Continued, values first:

- binding [1]: binds
Molecule: Aurora B (endogenous, HeLa Kyoto) (from UniProt Q96GD4 1-344) (enzyme)

- binding [5]: binds
Molecule: Myc-Aurora B (transfected in HeLa Kyoto) (from UniProt Q96GD4 1-344) (enzyme)
